Experimental data from PubChem BioAssay AID1508624 (National Center for Advancing Translational Sciences (NCATS), 2021).
Hit rate of the full screen: of about 48,000 compounds, about 120 (0.25%) were called active. Roughly 4% stayed inconclusive and do not appear here. Calls follow the shape of the dose curve; as a rule, active = well fitted activation curve with a large enough effect; inconclusive = small, poorly fitted or top-dose-only effect, or another doubt; inactive = no such curve, though single readings can be large or run the other way. The list shows a part of the results.

assay: Primary qHTS for Identification of Small Molecule Activators of Huntingtin-Antisense Promoter Activity; conditions: HEK293 HTT-AS promoter firefly luciferase reporter, 24 h; series mostly up to 57.5 µM; activity change, positive = activation: at the top concentration; also: nearly all actives have a fitted effect of over 55% in size
How it was run: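 Firefly luciferase signal from promoter-reporter HEK293 cells was scaled between vehicle (0%) and zero RLU (-100%). Compounds were tested at final concentrations of up to 57.5 uM over 24 h at 37 degrees C. PTC124 at 50 uM final served as control inhibitor.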
Potency is read from the fitted curve at half-maximal effect.

Structure (SMILES) | activity change, positive = activation | Potency
CCOc1cccc(CC(=O)N2CCc3c([nH]c4ccccc34)C2c2ccc(C)cc2)c1OCC (stereo not given) | inactive: -23.8% | –
Cc1ccc(C)c(-c2nn(CC(=O)Nc3cc(F)ccc3F)c(=O)c3c2CCCC3)c1 | inactive: -39.4% | –
COc1ccc(C(=O)Nc2ccc3c(c2)N(C2CCCC2)C(=O)c2ccccc2S3)cc1OC | inactive: -37.2% | –
COc1cc(C(=O)Nc2ccc(Cl)c(-c3nc4ncccc4o3)c2)cc(OC)c1OC | inactive: -24% | –
O=C(NCCc1ccccc1)C(=O)NCC(c1cccnc1)N1CCN(c2ccccc2)CC1 (stereo not given) | inactive: -40.5% | –
O=C(Cn1cc(S(=O)(=O)N2CCN(c3ccccc3F)CC2)c2ccccc2c1=O)Nc1cccc(C(F)(F)F)c1 | inactive: -27.6% | –
Cc1ccccc1CNC(=O)CCCn1c(=O)c2cccn2c2ccccc21 | inactive: -9.79% | –
Cc1cccc2c1-c1sc(C(=O)N3CCN(c4ccc(F)cc4)CC3)cc1CO2 | inactive: 16.2% | –
CC(=O)c1ccc(N2CCN(S(=O)(=O)c3cc(-c4onc(C)c4C)ccc3C)CC2)cc1 | inactive: -28.9% | –
CCc1ccccc1-n1c(SCC(=O)Nc2ccc(C)cc2)nc2n[nH]c(C)c2c1=N | inactive: -47.9% | –
CC(C)(C)NCC(O)c1cc(O)cc(O)c1 (stereo not given) | inactive: -13.8% | –
O=C(c1ccc2c(c1)N(Cc1ccccc1Cl)C(=O)c1ccccc1S2)N1CCCC1 | inactive: -30.6% | –
CCc1cccc(NC(=O)Cn2c(-c3ccc(F)cc3)cc(C(C)=O)c2C)c1 | inactive: -28.8% | –
Cc1ccccc1CNC(=O)CN1CCSc2ccccc21 | inactive: 7.07% | –
Nc1nc2nc(-c3ccccc3)cc(=O)n2[nH]1 | inactive: -7.61% | –
COc1ccc(NC(=O)CN2CCCN(Cc3ccccc3)S2(=O)=O)cc1 | inactive: -18.6% | –
Cc1ccc(NC(=O)C2CCN(S(=O)(=O)c3ccc4c(c3)CCCC(=O)N4)CC2)c(Br)c1 | inactive: -19.6% | –
Cc1cccc(NS(=O)(=O)c2ccc3c(c2)n(C)c(=O)n3C)c1C | inactive: -22.9% | –
Fc1ccc(CNc2nc(-c3ccc(Cl)cc3)cc(C(F)(F)F)n2)cc1 | inactive: -27.3% | –
CCCCOC(=O)c1ccc(NC(=O)c2ccc3c(c2)CCCN3S(C)(=O)=O)cc1 | inactive: -29.4% | –
O=C(CSc1nc2ccccc2nc1Cc1ccc(Cl)cc1)N1CCCCC1 | inactive: -34.4% | –
Cc1cc(=O)n2nc(N3CCC(C(=O)NCCCOC(C)C)CC3)sc2n1 | inactive: -2.12% | –
O=C(CSc1nnc(CNC(=O)c2ccccc2)n1-c1ccc(F)cc1)Nc1ccccc1F | inactive: -17% | –
NS(=O)(=O)c1cc2c(cc1Cl)NC(CC1CCCC1)NS2(=O)=O (stereo not given) | inactive: -12.9% | –

Structure (SMILES) | activity change, positive = activation | Potency
O=C(CC1NCCNC1=O)Nc1ccc(F)c(Cl)c1 (stereo not given) | inactive: 11.2% [at 11.5 µM, percent change from vehicle, -100% = no light] | –
Cc1nn(-c2ccc(F)cc2)c(-n2cccc2)c1C(=O)N1CCCCC1C (stereo not given) | inactive: -9.79% | –
Cc1cc(NC(=O)c2oc3c(c2C)-c2[nH]ncc2CC3)ccc1Br | – | active: 1120 nM
CCCCOc1ccc(C(=O)Nc2sc3c(c2C(=O)OCC)CCCCC3)cc1 | inactive: -15% | –
COc1ccc(Nc2ncc(C(=O)Nc3ccc(F)cc3F)c3ccccc23)cc1 | inactive: -19.4% | –
CCOCCCn1c(SCC(=O)Nc2ccc(F)cc2)nc2c(sc3ccccc32)c1=O | inactive: 2.68% | –
CCC(C(=O)Nc1cc(-c2cn3cccnc3n2)ccc1C)c1ccccc1 (stereo not given) | inactive: -6.08% | –
COc1ccccc1N1CCN(S(=O)(=O)c2ccc3c(c2)CCCN3C(C)=O)CC1 | inactive: -23.4% | –
CN(C)CCNC(=O)c1ccc2nc(Cc3ccccc3)oc2c1 | inactive: 9.42% | –
Cc1ccc(Cl)cc1N1CCN(C(=O)c2sc3nc4n(c(=O)c3c2C)CCC4)CC1 | inactive: -10.9% | –
CCN(CC)C(=O)Cn1cc(SCC(=O)Nc2cc(OC)ccc2OC)c2ccccc21 | inactive: -35.5% | –
COc1ccc(Cl)cc1NC(=O)CSc1cc(C)[nH]c(=O)n1 | inactive: -8.38% | –
Cc1cccn2c(=O)cc(CSc3nnc(NC(=O)C(C)C)s3)nc12 | inactive: -11.5% | –
CCC(CC)C(=O)Nc1ccc2nc(SCC(=O)N3CCOCC3)sc2c1 | inactive: -24.7% | –
Cc1ccccc1C(=O)Nc1sc2c(c1C(=O)N1CCCCC1)CCC(C(C)(C)C)C2 (stereo not given) | inactive: 2.11% | –
O=C(NCc1ccc(Cl)cc1)C1CCN(S(=O)(=O)c2ccc(F)cc2)CC1 | inactive: -15.4% | –
CSc1ccc(CCNC(=O)c2c(C)nn(-c3ccc(F)cc3)c2-n2cccc2)cc1 | inactive: -35.2% | –
CCC(C)n1c(SCc2ccc(F)cc2Cl)nc2ccsc2c1=O (stereo not given) | inactive: -36.8% | –
Cc1ccc(CSc2nc3ccc(NC(=O)CC(C)C)cc3s2)cc1 | inactive: -17.8% | –
CCOC(=O)c1noc2ncn(Cc3ccc([N+](=O)[O-])cc3)c(=O)c12 | inactive: 5% | –
COc1ccc(C(=O)NCC(c2ccc(N(C)C)cc2)N2CCOCC2)cc1 (stereo not given) | inactive: -15% | –
CC[N+](CC)(CC)CCOc1cccc(OCC[N+](CC)(CC)CC)c1OCC[N+](CC)(CC)CC | inactive | –
O=c1oc2ccccc2cc1-c1nc(-c2cccc(Cl)c2)cs1 | inactive: -0.137% | –
COc1ccccc1N1CCN(c2ncc3c(n2)CCN(Cc2ccc(C)s2)C3)CC1 | inactive: -21.5% | –

Structure (SMILES) | activity change, positive = activation | Potency
COc1ccc(Cl)cc1NC(=O)CSc1nc(-c2cccs2)cc(C(F)(F)F)n1 | inactive: -32.8% | –
COc1ccccc1Cn1c(C2CC(=O)N(c3ccccc3OC)C2)nc2ccccc21 (stereo not given) | inactive: -26.5% | –
NCc1ccc(S(N)(=O)=O)cc1 | inactive: -3.89% | –
O=C(CSC1=Nc2ccccc2C2=NC(Cc3ccccc3)C(=O)N12)Nc1cccc(Cl)c1 (stereo not given) | inactive: -28% | –
CCc1ccc2occ(CC(=O)Nc3c(C(=O)c4ccccc4)oc4ccccc34)c2c1 | inactive: -11.4% | –
CCOC(=O)c1c(-c2ccccc2)oc2ccc(NS(=O)(=O)c3ccc(C)cc3)cc12 | inactive: -42.9% | –
CCN1C(=O)c2ccccc2Sc2ccc(NC(=O)Nc3cc(C)cc(C)c3)cc21 | inactive: -45.9% | –
Cc1ccc(CNC(=O)c2cc3sc(Cl)cc3n2C)cc1 | inactive: -15% | –
CCOc1ccccc1CNS(=O)(=O)c1ccc(-c2cnc(C3CC3)o2)cc1 | inactive: -56.8% | –
COc1ccc(-c2noc(-c3nnn(-c4ccc(C)cc4C)c3C)n2)cc1 | inactive: 5.75% | –
COc1ccc(NC(=O)CSC2=Nc3ccccc3C3=NC(CCC(=O)NC4CCCCC4)C(=O)N23)cc1Cl (stereo not given) | inactive: -10.5% | –
COc1ccc(S(=O)(=O)c2cn(C)c3cc(N4CCCCCC4)c(F)cc3c2=O)cc1 | inactive: -10.7% | –
Cc1ccc(-n2nc(CO)c(C(=O)NCc3cccnc3)n2)cc1C | inactive: -9% | –
O=C(Nc1cc(F)ccc1F)C1CCN(C(=O)c2cnn(-c3ccccc3)c2-n2cccc2)CC1 | inactive: -29.7% | –
Cc1ccc(NC(=O)CSc2nncn2C)c(C)c1 | inactive: -0.983% | –
COc1ccc(Cl)c2sc(NC(=O)c3ccc(S(=O)(=O)N4CCCC4)cc3)nc12 | inactive: -14.6% | –
COc1ccccc1NC(=O)CSCc1cc(=O)c2cccc(Cl)c2[nH]1 | inactive: -21.1% | –
COc1ccc(OC)c(C2CC(=O)Nc3c2c(=O)n(C)c2ncnn32)c1 (stereo not given) | inactive: -12.6% | –
Cc1ccc(C)c(CN2CCCN(Cc3ccccc3C)S2(=O)=O)c1 | inactive: -22.2% | –
Cc1cc(C)cc(NC(=O)CN2C(=O)c3ccccc3Sc3ccc(C(=O)N4CCCC4)cc32)c1 | inactive: -20.2% | –
CCOC(=O)c1ccc(Nc2c(-c3ccc(N(C)C)cc3)nc3nc[nH]n23)cc1 | inactive: 7.54% | –
O=C(CN1C(=O)CCc2cc(Br)ccc21)Nc1ccc(OC(F)(F)F)cc1 | inactive: -23% | –
COc1ccccc1NC(=O)CSc1nnc2c(n1)[nH]c1ccccc12 | inactive: -16.4% | –
O=c1[nH]nc(Sc2ncc([N+](=O)[O-])s2)n1-c1ccc2c(c1)OCCO2 | inactive: -94.7% | –

Structure (SMILES) | activity change, positive = activation | Potency
COc1cccc(CNC(=O)c2nn(C)c3c2CSc2ccccc2-3)c1 | inactive: -9.51% | –
COc1ccc(NC(=O)c2cnc3cc(C)ccn3c2=O)c(OC)c1 | inactive: -16.6% | –
COc1ccc(Cn2c(=O)n(-c3ccc(C)cc3)c(=O)c3c2c2cc(C)ccc2n3C)cc1 | inactive: -5.48% | –
Cc1ccc2nc(-c3ccc(Cl)c(NC(=O)COc4ccc([N+](=O)[O-])cc4)c3)oc2c1 | inactive: 0.626% | –
CCOC(=O)c1c(C)oc2ccc(N(C(=O)c3ccncc3)S(=O)(=O)c3ccc(F)cc3C)cc12 | inactive: -47.6% | –
O=C(Cn1c(=O)n(-c2ccccc2)c(=O)c2c3c(sc21)CCC3)c1ccc(Br)cc1 | inactive: -7.36% | –
CC(C)CCNC(=O)CCCn1c(=O)c2cccn2c2ccccc21 | inactive: -2.97% | –
Cc1cccc(CS(=O)(=O)Cc2ccc(C(=O)NCc3ccc(F)cc3)o2)c1 | inactive: -29.3% | –
COc1cccc(NC(=O)c2cnc(SCC(=O)N3CCCc4ccccc43)n(C)c2=O)c1 | inactive: -8.87% | –
CCN(C(=O)c1cc2c(=O)oc3ccccc3c2s1)c1ccccc1F | inactive: -3.89% | –
Cc1noc(-c2ccc(-c3noc(-c4ccc(Cl)cc4)n3)cc2)n1 | inactive: 8.26% | –
CC(=C(CCOC(=O)C(C)C)SSC(CCOC(=O)C(C)C)=C(C)N(C=O)Cc1cnc(C)nc1N)N(C=O)Cc1cnc(C)nc1N | inactive: 1.19% | –
COCCNC(=O)CCn1nc(-c2ccc(Cl)cc2)c2ccccc2c1=O | inactive: -4.44% [at 11.5 µM, percent change from vehicle, -100% = no light] | –
CC(=O)N1CCCc2cc(S(=O)(=O)Nc3ccc(Cl)cc3F)ccc21 | inactive: -26.5% | –
CC1CCN(C(c2ccc(F)cc2)c2sc3nc(-c4ccco4)nn3c2O)CC1 (stereo not given) | inactive: -10.8% | –
COc1ccc(CC(=O)N2CCc3c([nH]c4ccccc34)C2c2ccc(SC)cc2)cc1 (stereo not given) | inactive: -29.3% | –
COc1ccc(C(=O)N2CCN(C(=O)COc3ccccc3)CC2)cc1OC | inactive: 8.24% | –
O=C(c1ccc2c(c1)N(Cc1ccccc1)C(=O)c1ccccc1S2(=O)=O)N1CCOCC1 | inactive: -8.84% | –
COc1ccc(NC(=O)C(NC(=O)/C=C\c2ccc3c(c2)OCO3)c2ccc(C)cc2)cc1 (stereo not given) | inactive: 1.1% | –
CCc1ccc(-n2c(N3CCN(c4ccc(F)cc4)CC3)nc3ccccc3c2=O)cc1 | inactive: -29% | –
COc1ccc(C)cc1NC(=O)Cn1nc(N2CCN(c3ccccc3OC)CC2)ccc1=O | inactive: -22.5% | –
COc1ccccc1Cc1nc2ccccc2nc1SCC(=O)NCc1ccc(C)cc1 | inactive: -8.14% | –
COc1ccccc1CNC(=O)C(=O)NCC(c1cccnc1)N1CCN(c2ccccc2)CC1 (stereo not given) | inactive: -33.5% | –
